In the series the test system is ATP. Put plainly: switch fluorescence ratio, 500 uM ATP over buffer (Cy3 cluster intensity, sum of 5 cycles each) (fold (ratio)); higher = stronger signal-on switching upon ATP binding; sequences stand for … in TCGTCGGCAGCGTCAGATGTGTATAAGAGACAGTTTTTTTTTTTTTTTTTTTTTTTTT…TC. Conditions: aptamer strand: ATP DNA aptamer (quencher-CACCTGGGGGAGTATTGCGGAGGAAGG + anchor), 100 nM annealed; ATP concentration: 500 uM; one replicate. The essentials: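 Five buffer/ATP imaging cycles were run on Cy3-labelled switching-strand clusters on a modified Illumina MiSeq flow-cell, with NaOH stripping and re-annealing between cycles. In each cycle, clusters annealed to 100 nM quencher-labelled ATP aptamer were imaged in selection buffer, then after 15 min with 500 uM ATP at 22 °C. Per cluster, the fluorescence ratio is summed target-cycle over summed buffer-cycle Cy3 intensity, averaged per switch-domain sequence. Only clusters within 100-1000 RFU were kept.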

Sequences with one replicate were seen in a single cluster, so their values are uncertain.
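Further: ATP exposure 15 min at 22 °C before imaging.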

Regarding AGTTTTTGTG, the switch fluorescence ratio was found to be 0.97.
With ACGTGAACGC the figure was 1.09.
The result for AAGTGCGTCT reads 1.07; that for AAAAGCGGGA, 0.992.
In the case of ACTCCGATCG, the switch fluorescence ratio was determined as 1.49.
Regarding AACGACTAGC, the switch fluorescence ratio is 0.984.
With AAGAGGTTAA the figure was 0.965; with TTTAGGAGCG, 0.987; with CCCTGTTCAC, 1.05.
The result for GAATAGTCAC reads 0.98; that for ATACGTCGCA, 1.06; that for CCGGAAGTCG, 0.947.
As for GCCCCGTGAG, the switch fluorescence ratio was 1.81.
With ACAAGGGGAG the figure was 1.07.
The result for CCGTTGTTTC reads 1.14.
TAGGTTGGGA: the switch fluorescence ratio was found to be 1.02.
TCTCATTCAA: the switch fluorescence ratio came out at 1.05.
With AGCCTAGCTC the figure was 1.01; with ATTAGTAAGC, 1.03; with AATCGGGGCA, 0.954.
With TTATGAGTGC, the switch fluorescence ratio is 0.989.
With ACCCACTGTA, the switch fluorescence ratio was 1.46.
As for TAGGAATAGC, the switch fluorescence ratio was 1.01.
On to AAAACTCGGA, for which the switch fluorescence ratio amounted to 0.953.
Take TGCGACCTGG: the switch fluorescence ratio was found to be 0.952.
With ATAGTTGAAG, the switch fluorescence ratio is 0.997.
In the case of GCTGTACGGC, the switch fluorescence ratio is 1.05.
GAGACAGCGA: the switch fluorescence ratio amounted to 1.09.
As for TCAGGTTTAT, the switch fluorescence ratio worked out at 1.01.
Take TGTGAGGCG: the switch fluorescence ratio was 0.878.
For the sequence ATTCCTTAAG, the switch fluorescence ratio amounted to 1.01.
Regarding TAGTCAACTT, the switch fluorescence ratio was 1.01.
With AACAGGATA the figure was 1.01; with ACATCTATTG, 0.984.
For GCCCTGCGTG, the switch fluorescence ratio is 1.07.
The result for AACGTTATTA reads 1.07.
The result for CTGCGATTAA reads 1.08; that for TGGACAACGT, 1; that for AGTAGCCCTT, 0.983.
In the case of ACACAAAACC, the switch fluorescence ratio worked out at 1.05.
For the sequence CATAACCCAG, the switch fluorescence ratio is 1.05.
In the case of TCTGGTTCTG, the switch fluorescence ratio is 0.976.
As for AGGTACTCTT, the switch fluorescence ratio is 1.04.
CGTGCCGGCC: the switch fluorescence ratio turned out to be 0.972.
Regarding TCCACGCTTG, the switch fluorescence ratio was 1.
TGCAGGGTAA: the switch fluorescence ratio is 1.1.
For the sequence TACTGGACGG, the switch fluorescence ratio turned out to be 1.23.
Take ATTAATGGGC: the switch fluorescence ratio was found to be 0.999.
For the sequence AAGGACTGCA, the switch fluorescence ratio came to 1.05.
As to GGAACCCCCG, the switch fluorescence ratio is 1.14.
With AGATCTGAGT the figure was 0.978; with TCTCACTTGA, 1.11; with TTTGCACCTG, 0.989.
Regarding ACGGGGTTCG, the switch fluorescence ratio was 0.993.
Turning to GGATTTTTAC, the switch fluorescence ratio is 1.01.
In the case of GAGCATGAGA, the switch fluorescence ratio is 1.08.
Regarding CACATTAACA, the switch fluorescence ratio came to 1.06.
Regarding AAGGCCGCCG, the switch fluorescence ratio worked out at 0.98.
With ATTAGCCCAT, the switch fluorescence ratio amounted to 1.03.
With CATCTATGTA, the switch fluorescence ratio was found to be 0.996.
Consider GTTCCAGCAT, for which the switch fluorescence ratio is 1.19.
With TGATTGATGT, the switch fluorescence ratio was 0.981.
With TATTAATTA the figure was 0.937; with GACGATGTTA, 1.04.
For GTGTGCAAAA, the switch fluorescence ratio amounted to 1.05.
For ATGGTACCAG, the switch fluorescence ratio amounted to 1.03.
TGTCGCCTAG: the switch fluorescence ratio turned out to be 1.02.
With GCGAGAGGTA the figure was 1.03; with ATCGTCGTAT, 0.975.
Regarding AATATGGTCA, the switch fluorescence ratio was determined as 1.
Turning to GAACGCGCTA, the switch fluorescence ratio was found to be 1.23.
As for GGACAAGCGC, the switch fluorescence ratio came to 1.02.
Regarding AGGTTCGTCC, the switch fluorescence ratio worked out at 0.977.
For the sequence ACTCAATAGC, the switch fluorescence ratio worked out at 1.43.
The result for TCACTTTAAT reads 1.05; that for CGGGGCCGTG, 0.962.
CAAGCTGCTC: the switch fluorescence ratio turned out to be 1.13.
The result for ATGAAGAACG reads 1.06.

The values above are taken from the supplement of paper PMC10126150.
